The values that follow come from a collection of fitness landscapes (doi:10.1126/science.1257360).

B1: PhoQ; a variant is named by its letters at X, in order, P23837 (parent)
chain: MKKLLRLFFPLSLRVRFLLATAAVVLVLSLAYGMVALIGYSVSFDKTTFRLLRGESNLFYTLAKWENNKLHVELPENIDKQSPTMTLIYDENGQLLWAQRDVPWLMKMIQPDWLKSNGFHEIEADVNDTSLLLSGDHSIQQQLQEVREDDDDAEMTHSVAVNVYPATSRMPKLTIVVVDTIPVELKSSYMVWSWFIYVLSANLLLVIPLLWVAAWWSLRPIEALAKEVRELEEHNRELLNPATTRELTSLVRNLNRLLKSERERYDKYRTTLTDLTHSLKTPLXXLQXXLRSLRSEKMSVSDAEPVMLEQISRISQQIGYYLHRASMRGGTLLSRELHPVAPLLDNLTSALNKVYQRKGVNISLDISPEISFVGEQNDFVEVMGNVLDNACKYCLEFVEISARQTDEHLYIVVEDDGPGIPLSKREVIFDRGQRVDTLRPGQGVGLAVAREITEQYEGKIVAGESMLGGARMEVIFGRQHSAPKDE

The other results are listed elsewhere or left out. Where only a bound is given, the exact number is not on record here.

This assay covers variants of B1. Briefly: enrichment ratio after two sorts for PhoP signalling (ratio (wild type AVST 3.29)); higher = more functional. The conditions noted are these: with PhoP (E. coli).
Consider NCPR, for which the enrichment ratio was no more than 0.25.
For ASCC, the enrichment ratio is 18.2.
With DDAT, the enrichment ratio was no more than 0.25.
With SPEG the figure was no more than 0.25.
With ASVY the figure was 2.98; with ICWQ, no more than 0.25.
Then GEQR, with no more than 0.25; and NHKF, with no more than 0.25.
As for QNTI, the enrichment ratio was no more than 0.25.
Then ECCN, with no more than 0.25.
Then QMFQ, with no more than 0.25; and NPPY, with no more than 0.25; and TWSS, with no more than 0.25.
Then PWIC, with no more than 0.25; and PTIV, with no more than 0.25; and MYSE, with no more than 0.25.
EISA: the enrichment ratio is no more than 0.25.
For the variant TFCP, the enrichment ratio is no more than 0.25.
As for ISKE, the enrichment ratio was no more than 0.25.
With YCQF the figure was no more than 0.25.
With WQAV the figure was no more than 0.25; with PEPF, no more than 0.25.
Take SAKY: the enrichment ratio was no more than 0.25.
In the case of GWQA, the enrichment ratio was no more than 0.25.
For the variant YCPW, the enrichment ratio is no more than 0.25.
As for TLCI, the enrichment ratio was no more than 0.25.
With NRIH the figure was no more than 0.25; with DGFY, no more than 0.25.
With IVNP the figure was no more than 0.25.
On to MEPW, for which the enrichment ratio was no more than 0.25.
In the case of MTPW, the enrichment ratio is no more than 0.25.
With NDQW the figure was no more than 0.25; with ICAI, no more than 0.25; with PPYC, no more than 0.25.
With YGNP, the enrichment ratio was no more than 0.25.
In the case of PKDP, the enrichment ratio was no more than 0.25.
Then LGDD, with no more than 0.25; and GKNF, with no more than 0.25.
As for AWSI, the enrichment ratio was no more than 0.25.
Take IGMA: the enrichment ratio is no more than 0.25.
Then WTLV, with no more than 0.25.
With KYVV the figure was no more than 0.25.
With DCLS, the enrichment ratio is no more than 0.25.
Regarding WVLD, the enrichment ratio is no more than 0.25.
With FHHA the figure was no more than 0.25.
With PDNP the figure was no more than 0.25; with VNIK, no more than 0.25; with HYIL, no more than 0.25.
With VMGH the figure was no more than 0.25; with IRWV, no more than 0.25.
For NSNI, the enrichment ratio was no more than 0.25.
With QSDF the figure was 2.95.
Take WGAI: the enrichment ratio is no more than 0.25.
With QVVL, the enrichment ratio is no more than 0.25.
With LKFK the figure was 0.274.
On to SQDA, for which the enrichment ratio is no more than 0.25.
With MCYY the figure was no more than 0.25; with TEPC, no more than 0.25.
Take EQMH: the enrichment ratio was no more than 0.25.
For the variant SDVG, the enrichment ratio was 1.53.
For the variant RYFT, the enrichment ratio is no more than 0.25.
Consider YLAM, for which the enrichment ratio was no more than 0.25.
For the variant LHYT, the enrichment ratio is 0.383.
RHWV: the enrichment ratio is no more than 0.25.
With KSDH the figure was no more than 0.25; with NNYS, no more than 0.25.
Consider DKFI, for which the enrichment ratio was no more than 0.25.
With IWSM the figure was no more than 0.25.
In the case of VLSI, the enrichment ratio was no more than 0.25.
With NQMY, the enrichment ratio was no more than 0.25.
Consider YCEP, for which the enrichment ratio is no more than 0.25.
Then HRSV, with no more than 0.25.
Regarding NKQW, the enrichment ratio was no more than 0.25.
With KPFE, the enrichment ratio is no more than 0.25.
As for RYLI, the enrichment ratio was no more than 0.25.
With ACIY the figure was no more than 0.25.
In the case of GSCH, the enrichment ratio amounted to 8.43.
For EFCM, the enrichment ratio is no more than 0.25.
Turning to QIWN, the enrichment ratio turned out to be 27.2.
With RRVF the figure was no more than 0.25; with ESVC, no more than 0.25.
Then GCMG, with 16.9; and KSFF, with no more than 0.25; and NTTS, with no more than 0.25.
Turning to ETHR, the enrichment ratio was no more than 0.25.
Then KATH, with no more than 0.25; and WILD, with no more than 0.25; and ALSW, with 7.85.
With LDYN the figure was no more than 0.25; with AQGC, 12.4; with MSVM, 7.37.
Then AIIS, with 8.23; and EIMR, with no more than 0.25.
As to QAHN, the enrichment ratio was no more than 0.25.
As to SNKS, the enrichment ratio is no more than 0.25.
In the case of SHWN, the enrichment ratio is no more than 0.25.
In the case of EVSP, the enrichment ratio was no more than 0.25.
For the variant LDKP, the enrichment ratio was no more than 0.25.
On to KEHE, for which the enrichment ratio was no more than 0.25.
Then RWYT, with no more than 0.25; and GKDM, with no more than 0.25; and LRVV, with no more than 0.25.
With ASYG the figure was no more than 0.25; with DAVH, no more than 0.25; with GVCG, 12.7.
Then FPQK, with no more than 0.25.
As for TNQG, the enrichment ratio was no more than 0.25.
With EPHM the figure was no more than 0.25; with PTWC, no more than 0.25.
Then STVD, with no more than 0.25; and MMKS, with no more than 0.25; and MHYF, with no more than 0.25.
With DPYI the figure was no more than 0.25.
For IPSW, the enrichment ratio is no more than 0.25.
Then ECTQ, with no more than 0.25.
Then RIKD, with no more than 0.25.
Then AWSH, with no more than 0.25; and ENAY, with no more than 0.25; and RFFV, with no more than 0.25.
For YVKS, the enrichment ratio was no more than 0.25.
Then WSRI, with no more than 0.25; and KRGE, with no more than 0.25; and ERGW, with no more than 0.25.
With VTRH the figure was no more than 0.25.
Take RQTF: the enrichment ratio is no more than 0.25.
In the case of PIIV, the enrichment ratio is no more than 0.25.
With ACWS the figure was no more than 0.25; with KFGM, no more than 0.25.
With KTCM the figure was no more than 0.25.
Regarding HPLC, the enrichment ratio was no more than 0.25.
With YHIW the figure was no more than 0.25; with KEKC, no more than 0.25.
Then QRAR, with no more than 0.25; and EQEF, with no more than 0.25.
For the variant QEPK, the enrichment ratio was no more than 0.25.
With TTCW the figure was 3.31; with KDLA, no more than 0.25.
Then GIKW, with no more than 0.25; and HFCY, with no more than 0.25.
Then TCER, with no more than 0.25; and KVLC, with no more than 0.25; and YIYQ, with no more than 0.25.
Take AMCC: the enrichment ratio was determined as 10.4.
As to WTWH, the enrichment ratio is no more than 0.25.
With NWKI the figure was no more than 0.25; with MLKV, no more than 0.25.
Then RITI, with no more than 0.25; and CPIS, with no more than 0.25; and PDHG, with no more than 0.25.
With TQPI the figure was no more than 0.25.
Consider MHCR, for which the enrichment ratio was no more than 0.25.
Take MKVM: the enrichment ratio was no more than 0.25.
Turning to FFRK, the enrichment ratio is no more than 0.25.
